PubChem BioAssay AID686979 (National Center for Advancing Translational Sciences (NCATS), 2013)
About 50,000 (12%) of roughly 420,000 compounds were called active. Inconclusive results, whose numbers are uncertain, are shown with a selection of clear calls. The call rests on the fitted dose curve; in most records, active means well fitted inhibition curve with a large enough effect; inconclusive means small, poorly fitted or top-dose-only effect; inactive means flat fitted curve, though single readings scatter. Potencies of inconclusive entries are left out as doubtful fits.

Assay: qHTS for Inhibitors of human tyrosyl-DNA phosphodiesterase 1 (TDP1): qHTS in cells in presence of CPT; further: nearly all actives have a fitted effect of over 55% in size
Conditions: chicken DT40 Tdp1-/-;hTDP1 cells + 20 nM CPT, ATP luminescence, 48 h; activity change, negative = growth inhibition: at 46.2 µM (top of the series) unless noted
In short: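 Chicken DT40 Tdp1-/- cells complemented with human TDP1, 400 cells/well, exposed to compounds plus 20 nM camptothecin for at least 48 h at 37 C; viability read as ATP content by CellTiter-Glo luminescence.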
On the % scale 0 is the no-effect control and ±100 the full control effect; potency means the concentration at half of the fitted maximal effect; tags describe the fitted curve by direction and shape.

Row | Compound | Potency | activity change, negative = growth inhibition
1 | COc1cc(N/C(N)=N/c2nc(C)cc(C)n2)c(OC)cc1Cl | active: 14.6 µM | 
2 | FC(F)(F)c1cc(Oc2ccccc2Cl)nc(-c2ccccn2)n1 | inconclusive [inhibitor, single point] | 
3 | COc1ccc(S(=O)(=O)N(Cc2nc3ccccc3c(=O)[nH]2)C2CCCC2)cc1 | inconclusive [inhibitor, single point] | 
4 | CCOc1ccccc1NC(=O)C1CCCN(S(=O)(=O)c2ccccc2)C1 (centres undefined) | inconclusive [inhibitor, partial curve] | 
5 | Cc1ccc(NC(=O)CSc2ccccc2)cc1S(=O)(=O)N1CCOCC1 | inconclusive [inhibitor, single point] | 
6 | O=C(N/N=C/c1cc(Cl)cc([N+](=O)[O-])c1O)NC12CC3CC(CC(C3)C1)C2 | inconclusive [inhibitor, single point] | 
7 | CCCCCc1nc2sc3c(c2c(=O)n1N)CCC3 | inconclusive [inhibitor, single point] | 
8 | O=C(NCCc1ccccc1)C1CCN(S(=O)(=O)c2ccc(Br)s2)CC1 | inconclusive [inhibitor, single point] | 
9 | CCN1CCN(c2ncc3c(n2)CCN(Cc2cc(Br)cs2)C3)CC1 | active: 18.4 µM | 
10 | CCC(C)NC(=O)c1cc2cc(S(=O)(=O)N3CCCCC3)ccc2n1C (centres undefined) | inconclusive [inhibitor, single point] | 
11 | O=C(NCCCN1CCOCC1)c1cc(-c2ccc(Cl)c(Cl)c2)on1 | inconclusive [inhibitor, single point] | 
12 | CCC1CSC(Nc2ccc(C(=O)/C=C/c3ccc(Oc4ccccc4)cc3)cc2)=N1 (centres undefined) | active: 23.1 µM | 
13 | Cc1nn(C(C)(C)C)c(NC(=O)c2ccccc2)c1C#N |  | inactive: -15.8%
14 | Cc1cccc(C)c1NC(=O)C(=O)NCC1CCCN1S(=O)(=O)c1cccs1 (centres undefined) | inconclusive [inhibitor, partial curve, poor fit] | 
15 | Cc1ccc(NC(=O)CSCC(=O)NNC(=O)c2ccoc2C)cc1 |  | inactive: -0.662%
16 | Cc1ccc(NC(=S)N=Nc2c(O)n(C)c3ccc(S(=O)(=O)N4CCOCC4)cc23)cc1C | active: 2.06 µM | 
17 | OC12CCCCC1C(c1ccc3c(c1)OCO3)N(Cc1cccc(F)c1)CC2 (centres undefined) | inconclusive [inhibitor, single point] | 
18 | COc1ccccc1NC(=O)c1cc2cc(Br)ccc2cc1O | active: 6.51 µM | 
19 | CCN(CC)c1ccc(C=Nc2ccc(OC)c(S(=O)(=O)N3CCOCC3)c2)c(O)c1 |  | inactive: -7.93%
20 | O=C(Nc1ccccc1Cl)C1CCCN(S(=O)(=O)c2cccc3cccnc23)C1 (centres undefined) | inconclusive [inhibitor, full curve, poor fit] | 
21 | CCCc1ccc(C(O)c2ncc(-c3cccc(OC)c3)[nH]2)cc1 (centres undefined) | active: 16.4 µM | 
22 | C#CCN(C[C@H]1[C@H](OC(=O)Nc2c(C)noc2C)[C@H](OC(=O)Nc2c(C)noc2C)C[C@@H](C(=O)OC)[C@H]1C(=O)OC)S(=O)(=O)c1ccc(C)cc1 | active: 20.6 µM | 
23 | Cc1cc(C)cc(Nc2cc(=O)n(C3CCCCC3)c(=O)[nH]2)c1 | inconclusive [inhibitor, single point] | 

Row | Compound | Potency | activity change, negative = growth inhibition
24 | CCN(CC)CCCNc1nc2cc(OC)c(OC)cc2c2nc(-c3ccccc3)nn12 | active: 20.6 µM | 
25 | Cc1cc(C)cc(OCC(=O)Nc2cccc(S(=O)(=O)NC3=NCCC3)c2)c1 |  | inactive: -24.4%
26 | CC12CNCC(C)(CN(C(c3ccccc3)c3ccccc3)C1)C2 | active: 16.4 µM | 
27 | Cn1c(SCC(=O)N2c3ccccc3Sc3ccccc32)nc2ccccc21 | inconclusive [inhibitor, single point] | 
28 | Cc1nc2nc(SCc3ccccc3)nn2c(C)c1C | inconclusive [inhibitor, single point] | 
29 | Cc1nc(N2CCN(S(=O)(=O)c3ccccc3)CC2)c2c3c(sc2n1)CC(C)CC3 (centres undefined) |  | inactive: -23.3%
30 | Cc1ccc(N(C(=O)Cn2nnc3ccccc32)C(C(=O)NC2CCCCC2)c2cn(C)nc2C)cc1 (centres undefined) | inconclusive [inhibitor, partial curve] | 
31 | COc1cc(Cn2c(=O)oc3ccc(C)cc32)ccc1OCCC(C)C | inconclusive [inhibitor, single point] | 
32 | CC(C)(C)c1ccc(S(=O)(=O)N2CCC(Oc3ccc(-n4cnnn4)cc3)CC2)cc1 | inconclusive [inhibitor, partial curve] | 
33 | O=C(CNC(=O)c1ccc(Cl)cc1)OCc1cc(=O)n2nc(C3CC3)sc2n1 |  | inactive: 5.28%
34 | Cc1cc(NS(=O)(=O)c2ccc(NC(=O)CSc3nc4ncc(Br)cc4[nH]3)cc2)nc(C)n1 |  | inactive: 13.4%
35 | Cc1ccc2nc(C)cc(Nc3ccc4c(c3)OCCO4)c2c1 | active: 22.4 µM | 
36 | COCCN(C(=O)COC(=O)C1CCCCC1)c1c(N)n(Cc2ccccc2)c(=O)[nH]c1=O |  | inactive: 1.95%
37 | Cc1ccc(C(=O)NC(=C(Cl)Cl)S(=O)(=O)c2ccc(C)cc2)cc1 | inconclusive [inhibitor, single point] | 
38 | O=C(Nc1nnc(-c2ccncc2)o1)c1ccccc1F | inconclusive [inhibitor, partial curve, poor fit] | 
39 | CC(C)C[C@H](NC(=O)c1[nH]cnc1C(=O)N[C@H](C)c1ccccc1)C(=O)OC(C)(C)C | inconclusive [inhibitor, single point] | 
40 | COc1cccc(C(c2nnnn2Cc2ccc(F)cc2)N2CCC(C(N)=O)CC2)c1OC (centres undefined) | inconclusive [inhibitor, partial curve] | 
41 | CCN(c1ccc(C)cc1C)S(=O)(=O)c1nnc(NC(=O)c2ccco2)s1 |  | inactive: -43.8%
42 | CCOC(=O)C1CCC(CN(Cc2ccccc2C)S(=O)(=O)c2ccc([N+](=O)[O-])cc2)CC1 (centres undefined) | inconclusive [inhibitor, single point] | 
43 | Cc1ccc(CNS(=O)(=O)c2ccc(N3CCCCS3(=O)=O)cc2)cc1 | active: 11.6 µM | 
44 | COC(=O)COc1ccc(C2C(C(=O)OC)=C(C)NC3=C2C(=O)c2ccccc23)cc1OC (centres undefined) |  | inactive: 8.15%
45 | Cn1nnnc1SCCCNCc1ccc(Cl)cc1 | inconclusive [inhibitor, partial curve, poor fit] | 
46 | CCOc1ccc(-n2c(SCC(=O)N3CCC(C(=O)O)CC3)nc3ccccc3c2=O)cc1 |  | inactive: -8.02%

Row | Compound | Potency | activity change, negative = growth inhibition
47 | CNC(=S)NNC(=O)c1ccc(=O)n(Cc2ccc(Cl)cc2Cl)c1 | inconclusive [inhibitor, partial curve] | 
48 | CN(C(=S)Nc1ccc(SC(F)F)cc1)c1ccc(O)cc1 | inconclusive [inhibitor, single point] | 
49 | CCc1cccc(NC(=O)CCCn2nc(C)c3c(C)n(-c4ccccc4)nc3c2=O)c1 | inconclusive [inhibitor, single point] | 
50 | COc1ccc(Nc2oc(-c3ccc(COc4cccc(C)c4)o3)nc2C#N)cc1 | inconclusive [inhibitor, single point] | 
51 | CCSc1nnc(NC(=O)c2ccc3ccccc3n2)s1 | active: 18.4 µM | 
52 | COc1cc(C(O)c2nc(-c3cccc(NC(C)=O)c3)cs2)ccc1F (centres undefined) | inconclusive [inhibitor, single point] | 
53 | CC(C)C(=O)N1CCN(c2ccccc2NC(=S)NC(=O)c2cccs2)CC1 | inconclusive [inhibitor, single point] | 
54 | Cc1ccc(C)c(CSc2nnc(-c3ccccn3)n2N)c1 | inconclusive [inhibitor, full curve] | 
55 | Cc1ccc(S(=O)(=O)NCC2CCC(C(=O)NCCCN3CCC(C)CC3)CC2)cc1 (centres undefined) |  | inactive: -27.9%
56 | CC(C)c1ccc(C2Sc3ccccc3NC3=C2C(=O)c2ccccc23)cc1 (centres undefined) | active: 16.4 µM | 
57 | CCC(C(=O)NCCC1=CCCCC1)c1ccccc1 (centres undefined) | inconclusive [inhibitor, single point] | 
58 | O=C(NC1CCSC1=O)C1CC(=O)N(c2ccc(F)cc2)C1 (centres undefined) |  | inactive: -6.79%
59 | CC1(C)CC(=O)C2=C(C1)OC(N)=C(C#N)C2c1cc2c(cc1[N+](=O)[O-])OCO2 (centres undefined) | inconclusive [inhibitor, single point] | 
60 | COC(=O)[C@@]12C[C@@H](CC(=O)NCC34CC5CC(CC(C5)C3)C4)C(=O)N(Cc3ccco3)C1=CCC(C)(C)C2 | active: 16.4 µM | 
61 | O=C(CSC1=NCCS1)Nc1nc(-c2ccccc2)cs1 | inconclusive [inhibitor, single point] | 
62 | Cc1ccc2c(c1)cc1c(=O)n(Cc3cccc(Cl)c3)nc(C)n12 | inconclusive [inhibitor, single point] | 
63 | CCOc1ccc(-c2nnc(-c3cccnc3)o2)cc1OCC | inconclusive [inhibitor, single point] | 
64 | Cc1cc(C)c2c(c1)NC(=O)C2(O)c1c[nH]c2ccccc12 (centres undefined) |  | inactive: -10.9%
65 | CCN(CC(=O)NCc1ccc(F)cc1)CC(=O)Nc1ccccc1-c1ccccc1 |  | inconclusive: -32.6% [inhibitor]
66 | CC1=CC(C)[C@@H]2COC(c3ccc(O)cc3)[C@H]1C2C (some centres undefined) | inconclusive [inhibitor, single point] | 
67 | CCCc1nnc(SCC(=O)Nc2cccc(C(F)(F)F)c2)o1 |  | inactive: 6.97%
68 | O=C(NCc1ccc2c(c1)OCO2)c1ccc2c(c1)N(Cc1c(F)cccc1Cl)C(=O)CS2 | inconclusive [inhibitor, single point] | 
69 | CC(O)(c1ccc(F)c(F)c1)c1nc(-c2csc3ccccc23)cs1 (centres undefined) | inconclusive [inhibitor, single point] | 
